In all, about 410,000 compounds went through this assay and about 260 (0.063%) were called active. This list was built around the results that the source calls inconclusive (neither active nor inactive); the mix of calls is not that of the screen. Calls follow the shape of the dose curve; as a rule, active = well fitted activation curve with a large enough effect; inconclusive = small, poorly fitted or top-dose-only effect; inactive = no such curve, though single readings can be large or run the other way. Potencies of inconclusive entries are left out as doubtful fits.
Assay: qHTS for compounds that reverse cellular toxicity of Amyloid beta (A-beta) peptide in yeast: Primary Screen; also: nearly all actives have a fitted effect of over 55% in size
Details: yeast expressing A-beta42, growth rescue, OD600, 48 h; growth rescue: at 46.1 µM (top of the series), 0% DMSO, 100% iron-clioquinol control
Summary of the method: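 Yeast A-beta toxicity model in growth medium with pinned compounds, 48 h at 30 C; growth read as absorbance at 600 nm. Normalized to FeCl3/clioquinol equimolar mix (positive) and DMSO (negative).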
Potency is read from the fitted curve at half-maximal effect; tags tell the direction and shape of the fitted curve.

| SMILES | growth rescue | Potency |
| --- | --- | --- |
| CCc1ccc(-n2c(N3CCN(c4ccc(F)cc4)CC3)nc3ccccc3c2=O)cc1 | inactive: 5.96% | – |
| CCOC(=O)c1cccc(NC(=S)NCc2ccc(C)cc2)c1 | – | inconclusive [activator, single point] |
| CC(=O)c1ccc(N2Cc3ccccc3/C2=N\C(=O)Nc2ccc(Cl)cc2)cc1 | – | inconclusive [activator, partial curve] |
| CN1C(=O)C(C)(C)N(C(=O)c2cccc([N+](=O)[O-])c2)c2ccccc21 | – | inconclusive [activator, full curve] |
| CCOc1ccc(Nc2nc(Cc3nnc(SCC(=O)NCC4CCCO4)n3C)cs2)cc1 (stereo not given) | – | inconclusive [activator, single point] |
| CCn1cc(C(=O)OCC(=O)Nc2cccc(Cl)c2C)c(=O)c2ccc(C)nc21 | – | inconclusive [activator, partial curve, poor fit] |
| CC(C)C[C@H]1CNC(=S)N1CC1CCCN1C[C@H](Cc1ccccc1)N1C[C@H](Cc2ccccc2)N(CC2CCCCC2)C1=S (stereo not given in full) | – | inconclusive [activator, partial curve, poor fit] |
| Cc1ccc(CNC(=O)Cn2c(=O)cc(-c3ccccc3)c3c(C)nn(C)c32)cc1 | inactive: -5.75% | – |
| CN(C)c1ccc(C(CNS(=O)(=O)c2ccc(F)c(F)c2)c2c[nH]c3ccccc23)cc1 (stereo not given) | – | inconclusive [activator, single point] |
| CCOc1ccc(NC(=O)Cn2c(=O)n(Cc3ccccc3)c(=O)c3sc4ccccc4c32)cc1 | inactive: -10.8% | – |
| COc1cccc(NC(=O)C2CC(=O)N(C)C(=Nc3cccc(F)c3)S2)c1 (stereo not given) | – | inconclusive [activator, partial curve] |
| Clc1ccc(C2Nc3cccc4cccc(c34)N2)c(Cl)c1 | – | inconclusive [activator, partial curve, poor fit] |
| C/C(=N\NC(=S)NC(C)C)c1ccccc1 | – | active: 11.2 µM |
| COc1ccc2c(c1)NC(c1cc(Cl)cc(Cl)c1O)c1cccn1-2 (stereo not given) | – | inconclusive [activator, single point] |
| CC[N+](CC)(CC)CCOc1cccc(OCC[N+](CC)(CC)CC)c1OCC[N+](CC)(CC)CC | inactive: -20.6% | – |
| Cc1ccccc1C(=O)Nc1sc2c(c1C(=O)N1CCCCC1)CCC(C(C)(C)C)C2 (stereo not given) | – | inconclusive [activator, full curve] |
| Nc1ccc2c(c1)CC(=O)c1ccccc1S2 | – | inconclusive [activator, single point] |
| CC/C(C)=N/NS(=O)(=O)c1ccc(C)c([N+](=O)[O-])c1 | – | inconclusive [activator, partial curve, poor fit] |
| Cc1cc(CNC(=O)c2cccnc2Cl)c2ccccc2n1 | inactive: 3% | – |
| CCc1ccccc1N1CN(Cc2ccco2)CNC1=S | – | inconclusive [activator, partial curve, poor fit] |
| Cc1ccccc1N1C(=O)Cc2ccccc2C1=O | – | inconclusive [activator, partial curve, poor fit] |
| COc1cccc(-c2cc(C(=O)NCC3CCCO3)c3ccccc3n2)c1 (stereo not given) | – | inconclusive [activator, full curve] |

| SMILES | growth rescue | Potency |
| --- | --- | --- |
| CN(C)c1ccc(C(=S)NC2CCCCC2)cc1 | – | inconclusive [activator, single point] |
| CCC(C)c1ccc(NC(=S)N2CCN(c3ccccn3)CC2)cc1 (stereo not given) | – | inconclusive [activator, partial curve, poor fit] |
| O=C(COC(=O)Cc1ccsc1)Nc1cccc(Cl)c1 | – | inconclusive [activator, partial curve] |
| Cc1ccc(NC(=S)NCc2ccc3c(c2)cc(C)n3C)c(C)c1 | – | inconclusive [activator, single point] |
| COc1ccccc1NCc1ccc([N+](=O)[O-])s1 | inactive: -2.36% | – |
| COc1ccc(C(O)c2nc(-c3cc(F)cc(F)c3)cs2)cc1 (stereo not given) | – | inconclusive [activator, partial curve] |
| CCCc1[nH]nc2c1C(c1ccoc1)C(C#N)=C(N)O2 (stereo not given) | – | inconclusive [activator, partial curve, poor fit] |
| CC1CCC2(CC1)C(Nc1cccc(Cl)c1)=NC(=S)N2CC#N (stereo not given) | – | inconclusive [activator, full curve] |
| CN(C)c1ccc(C=NNC(=S)Nc2ccc(F)cc2)cc1 | – | inconclusive [activator, partial curve, poor fit] |
| CC(C)(C)c1ccc(S(=O)(=O)NCC2CCCO2)cc1 (stereo not given) | – | inconclusive [activator, partial curve, poor fit] |
| O=S(=O)(NCCc1csc(-c2cccnc2)n1)c1cc(F)ccc1F | – | active: 14.1 µM |
| Cc1ccc(OCCCC(=O)NC(C)c2ccccc2)c(C)c1 (stereo not given) | – | inconclusive [activator, partial curve, poor fit] |
| c1ccc(-c2nc3ccccn3c2NC2CCCC2)nc1 | – | inconclusive [activator, partial curve, poor fit] |
| CCn1c(CN2CCN(c3cccc(C)c3C)CC2)n[nH]c1=S | – | inconclusive [activator, partial curve] |
| Cc1ccccc1Cn1nc(C)c(NC(=O)c2noc3c2CCc2ccccc2-3)c1C | – | inconclusive [activator, full curve, poor fit] |
| CC(OC(=O)c1ccc(O)cc1)C(=O)Nc1nc(-c2ccccc2)cs1 (stereo not given) | – | inconclusive [activator, partial curve, poor fit] |
| Cc1ccc(N2CC(NC(=O)c3ccc(S(=O)(=O)N(C)C)cc3)CC2=O)cc1C (stereo not given) | inactive: 1.94% | – |
| C/C(CC(=O)Nc1ccc(C)c(Cl)c1)=N\NC(=O)c1ccco1 | – | inconclusive [activator, partial curve, poor fit] |
| CCCN1CCOC(CC(=O)Nc2ccc([N+](=O)[O-])cc2)C1=O (stereo not given) | inactive: -88.8% | – |
| Cc1cc(C)n2[nH]c(=O)c(N=Nc3cccc(C(F)(F)F)c3)c2n1 | – | inconclusive [activator, single point] |
| COc1ccc(C(NC(C)=O)c2ccc3cccnc3c2O)c(OC)c1 (stereo not given) | – | inconclusive [activator, single point] |
| COc1cc(Cl)ccc1OCc1cc(C(=O)NCc2cc(C(C)C)no2)no1 | inactive: -6.66% | – |

| SMILES | growth rescue | Potency |
| --- | --- | --- |
| N#C/C(=C\c1cn(CC(=O)O)c2ccccc12)C(=O)NCc1ccccc1 | – | inconclusive [activator, full curve, poor fit] |
| Fc1ccc(NC(=S)N2CCc3ccccc3C2)c(F)c1 | – | inconclusive [activator, partial curve] |
| CCC(Oc1ccc(F)cc1)C(=O)Nc1nc2c(s1)CCCC2 (stereo not given) | – | inconclusive [activator, single point] |
| Cn1cc(CCCC(=O)NCc2cccc(Br)c2)c2ccccc21 | – | inconclusive [activator, partial curve] |
| Cc1cc(SCC(=O)NC(=O)c2cccn2C)nc2ccccc12 | – | inconclusive [activator, partial curve] |
| Cc1cccc2cc(CN(Cc3ccco3)C(c3nnnn3CCc3ccccc3)C(C)C)c(=O)[nH]c12 (stereo not given) | – | inconclusive [activator, partial curve, poor fit] |
| CS(=O)(=O)c1ccc(-c2csc(C(O)(c3ccccc3)C(F)(F)F)n2)cc1 (stereo not given) | – | inconclusive [activator, partial curve] |
| Cc1cccc(N2CCN(C(=O)CNC(=O)c3cccc([N+](=O)[O-])c3)CC2)c1C | – | inconclusive [activator, single point] |
| O=C(C[n+]1ccc(CCSc2ccc(F)cc2)cc1)c1ccccc1 | – | inconclusive [activator, single point] |
| CCc1ccc2oc(-c3ccc(OC)cc3)cc(=Nc3cccc(C(=O)O)c3)c2c1 | inactive: -35% | – |
| Cc1nc(CS(=O)(=O)c2ccccc2)cc(Sc2ccc(Cl)cc2Cl)n1 | inactive: -13.3% | – |
| Cc1ccccc1OCCCCn1c(C2CC(=O)N(c3ccccc3Cl)C2)nc2ccccc21 (stereo not given) | – | inconclusive [activator, single point] |
| CCCNC(=O)C1(C)CCN(C(=O)C2(c3ccc(Cl)cc3)CCCC2)C1 (stereo not given) | inactive: -16% | – |
| CCOc1ccccc1C(=O)Nc1cccc(-c2ccc(N3CCOCC3)nn2)c1 | – | inconclusive [activator, partial curve, poor fit] |
| COc1cc(OC)c(NC(=O)CCc2c(C)nc3c4c(C)cc(C)nc4nn3c2C)cc1Cl | inactive: 1.74% | – |
| Cc1ccc(N2CCN(c3ccc(C)cc3)C(CC(=O)O)C2=O)cc1 (stereo not given) | – | inconclusive [activator, partial curve] |
| COc1ccc(N2CCN(Cc3nc4c(c(=O)[nH]c(=O)n4C)n3Cc3ccccc3F)CC2)cc1 | inactive: -6.17% | – |
| O=C(OC(C(=O)Nc1cccc(C(F)(F)F)c1)c1ccccc1)C1CCCCC1 (stereo not given) | – | inconclusive [activator, single point] |
| COc1ccc(NC(=O)COC(=O)CCCN2C(=O)c3ccccc3C2=O)cc1Cl | inactive: 1.19% | – |
| CCCOc1ccccc1OCC(=O)N1CCN(S(=O)(=O)c2ccc(Cl)cc2)CC1 | – | inconclusive [activator, partial curve, poor fit] |
| N#CC1=C(N)SC(N)=C(C#N)C1C1C=CCCC1 (stereo not given) | – | inconclusive [activator, partial curve] |
